“And” between values parts separate entries of the source, which are not always exact repeats. Equal values may be shown once. Screen size: about 110,000 compounds; about 230 (0.21%) showed an effect of 50% or more. Some of the results follow.
These compounds were tested against DPAP1 (Plasmodium falciparum, UniProt Q8IIJ9) (assay: primary screen, percent inhibition; read by cleavage of a fluorogenic dipeptide substrate; higher = more effect of the substance).
Parameters: species or system P. falciparum D10 trophozoite lysates; single well
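Further: 30 min substrate incubation versus DMSO and 10 µM JCP410 controls.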

Chain of DPAP1 (Q8IIJ9 whole entry, looked up): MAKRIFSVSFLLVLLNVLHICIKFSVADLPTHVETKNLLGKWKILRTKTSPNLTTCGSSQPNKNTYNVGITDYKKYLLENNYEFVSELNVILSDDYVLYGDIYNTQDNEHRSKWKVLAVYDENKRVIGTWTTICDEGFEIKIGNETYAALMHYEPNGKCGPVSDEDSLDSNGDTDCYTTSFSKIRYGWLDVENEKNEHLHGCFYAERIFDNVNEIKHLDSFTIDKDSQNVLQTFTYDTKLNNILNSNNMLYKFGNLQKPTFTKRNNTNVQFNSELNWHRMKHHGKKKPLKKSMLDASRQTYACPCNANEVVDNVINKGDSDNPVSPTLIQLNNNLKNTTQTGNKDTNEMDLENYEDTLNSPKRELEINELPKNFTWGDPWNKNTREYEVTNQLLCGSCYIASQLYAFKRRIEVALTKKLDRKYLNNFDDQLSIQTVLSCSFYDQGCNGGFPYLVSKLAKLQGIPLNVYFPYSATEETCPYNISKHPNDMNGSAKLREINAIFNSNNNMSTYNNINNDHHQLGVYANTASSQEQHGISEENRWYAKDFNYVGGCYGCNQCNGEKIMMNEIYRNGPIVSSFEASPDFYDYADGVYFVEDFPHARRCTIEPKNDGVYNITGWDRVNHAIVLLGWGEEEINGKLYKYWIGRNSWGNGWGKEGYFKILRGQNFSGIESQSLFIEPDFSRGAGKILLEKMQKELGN

SMILES	% Inhibition @ 10 uM
COc1ccc(CNCc2ccc(Br)cc2)cc1OC	-4.16%
CCc1c(CN2CCC(C)CC2)csc1C	-0.716%
CCc1ccc(N2CC(C(=O)Nc3ccccc3C(=O)Nc3ccccc3C)CC2=O)cc1 (stereo not shown)	1.17%
COc1ccc(OC)c(N2Cc3ccccc3C2)c1	-4.15%
N#Cc1cc2c(nc1SCC(=O)Nc1nonc1-n1cccc1)CCCC2	4.61%
CCn1ncc(C2=NOC(C(=O)N3CCN(C(=O)c4ccco4)CC3)C2)c1C (stereo not shown)	-6.68%
O=C1CC(N2CCC(Cc3ccccc3)CC2)C(=O)N1c1ccccc1 (stereo not shown)	1.34%
C=C(C)Cn1c(N2CCOCC2)nc2c1c(=O)n(C)c(=O)n2C	0.635%
CCc1cccc(NC(=O)c2ccco2)c1	-1.42%
O=C(c1cccc([N+](=O)[O-])c1)N1CCN(c2ccc(F)cc2)CC1	-4.3%
COc1ccccc1N1CCN(C2CC(=O)N(c3ccc(C)cc3Cl)C2=O)CC1 (stereo not shown)	3.91%
CCO/C(O)=C1/C(C)=Nc2nc(SCC)nn2C1c1ccccc1Cl (stereo not shown)	-5.33%
CN(CC1OCCc2ccccc21)CC(c1ccccc1)c1ccccc1 (stereo not shown)	-0.902%
CCCCN(Cc1ccccc1)C(=O)c1ccc2ccccc2n1	3.93%
Cc1oc(-c2ccc(Cl)cc2)nc1CN1CCC(C(=O)NCC2CCCO2)CC1 (stereo not shown)	-2.85%
CC(C)Nc1nc2c(S(=O)(=O)c3ccc(C(C)C)cc3)nnn2c2ccsc12	1.41%
Cc1cc(C)n(C(C)CC(=O)NCCc2cccs2)n1 (stereo not shown)	-2.85%
N#CC1=C(N)OC2=C(C(=O)CCC2)C1c1cccnc1 (stereo not shown)	-5.5%
O=c1oc2ccccc2nc1/C=C(\O)c1ccc([N+](=O)[O-])cc1	-2.55%
CC(NC(=O)c1ccc(F)cc1)c1nc2ccccc2n1C (stereo not shown)	4.02%
COC(=O)c1ccc(Cn2cnc3c(cnn3-c3ccc(C)c(C)c3)c2=O)o1	-1.75%
COc1ccccc1C(=O)Nc1c(C(=O)N2CCN(C(=O)c3ccco3)CC2)oc2ccccc12	-9.61%
O=c1oc(-c2ccncc2)nc2sc3c(c12)CCCCC3	-6.08%
CCOC(=O)c1ccc(Oc2nc(N3CCOCC3)nc(N3CCOCC3)n2)cc1	0.401%
O=c1c2ccccc2ncn1Cc1cccc2ccccc12	-1.22%
O=C(O)c1cnc(N2CCOCC2)nc1C1CCNCC1	-4.69%

SMILES	% Inhibition @ 10 uM
COC(=O)c1sccc1NC(=O)c1nn(C)c2c1COc1ccccc1-2	-1.72%
CCOC(=O)c1c2n(c3cc(Cl)ccc3c1=O)CCC2	2.47%
CCOc1ccc(Nc2nc(C(F)(F)F)c(-c3ccccc3)s2)cc1	-1.74%
Cc1ccc(NC(=O)Cn2cc(CO)c3ccccc32)cc1	-2.29%
Cc1cc(C)nc(NC(=O)NS(=O)(=O)Nc2ccc(-c3ccccc3)cc2)n1	-0.999%
CCCCSCc1cc(C(=O)O)oc1C(C)(C)C	2.98%
CS(=O)(=O)N(CC(=O)Nc1ccccc1)c1cccc(F)c1	-10.1%
CCOC(=O)c1c(S(=O)(=O)NCC2CCCO2)c(C)n(C)c1C (stereo not shown)	-2.44%
CCCCc1ccc(C2C3=C(O)CC(C)(C)CC3=NC(C)=C2C(=O)OCC)s1 (stereo not shown)	0.215%
O=C(O)c1cc(N2C(=O)C3CCCCC3C2=O)ccc1Cl (stereo not shown)	-2.78%
CC(=O)Nc1cccc(NC(=O)c2ccc(Br)cc2)c1	-0.0404%
COc1cc(C2C(C#N)=C(N)OC3=C2C(=O)CCC3)cc(OC)c1OC (stereo not shown)	0.687%
Cc1oc2cc(OC(C)C)ccc2c(=O)c1Oc1ccccc1F	-6.24%
CC(C)(C)C1CC(O)CN(C(C)(C)C)C1 (stereo not shown)	-8.04%
c1coc(CNC2CCc3ccccc3C2)c1 (stereo not shown)	3.19%
CC1=C(c2ccc(C)cc2)S(=O)(=O)N=C1NCCCN1CCN(Cc2ccccc2)CC1	2.27%
CC1=C(C(=O)OCCc2ccccc2)C(c2cccnc2)C2=C(O)CC(c3ccccc3)CC2=N1 (stereo not shown)	11.9%
NCCc1nc2ccccc2[nH]1	4.52% and -1.29%
CCN(CC)C(=O)C1CCCN(Cc2ccc(F)cc2F)C1 (stereo not shown)	-7.49%
CC1CCN(c2ccc3nnc(CCC(=O)N4CCN(C)CC4)n3n2)CC1	0.842%
O=C(Nc1ccc(OC(F)(F)F)cc1)c1ccc(-c2ccccc2)cc1	1.26%
CC(=O)Nc1ccc(N2C(=O)CC(N3CCN(c4ccccc4)CC3)C2=O)cc1 (stereo not shown)	3.89%
CC(C)NCC1(O)CCC2C3CCC4CC(O)CCC4(C)C3CCC21C (stereo not shown)	5.04%
CCCC1=C(C(=O)OCC)C(c2cccc3ccccc23)C(C#N)=C(N)O1 (stereo not shown)	-2.22%
CC(C)NCc1nc2ccccc2c(=O)n1-c1ccc(F)cc1	3.58%
CC(C)c1ccc(S(=O)(=O)N2CCN(S(=O)(=O)c3ccc(C(C)C)cc3)C(C)C2)cc1 (stereo not shown)	-1.95%

SMILES	% Inhibition @ 10 uM
CCOC(=O)N1CCC(NCc2ccc(F)cc2)CC1	-0.0908%
CCCCN(C1CCS(=O)(=O)C1)S(=O)(=O)c1ccc(Cl)cc1 (stereo not shown)	-4.78%
CSc1nc(O)c2c3c(sc2n1)COC(C)(C)C3	0.392%
CCCCOC(=O)NS(=O)(=O)c1ccccc1	-9.32%
Cc1ccc2oc(-c3ccccc3F)c(O)c(=O)c2c1	4.96%
CC1CCN(C(=O)c2cc3oc4ccccc4c3n2C)CC1	4.55%
CC1CCCC(NC(=O)c2nn(C)c3c2CS(=O)(=O)c2ccccc2-3)C1C (stereo not shown)	3.71%
COc1ccc(C2CC(=O)C(/C=N/CCCO)=C(O)C2)cc1 (stereo not shown)	-1.06%
CCCNC(=O)c1cc(-c2ccc(Cl)cc2)[nH]n1	-2.93%
CC(=O)Nc1cccc(NC(=O)c2ccc(C)cc2)c1	1.43%
CC1(C)CCc2c(nc3ccccc3c2O)O1	4.28%
N#C/C(=C\Nc1ccccc1Cl)c1nc2ccccc2o1	4.39%
CC(CCc1ccccc1)N1CCCC1CO (stereo not shown)	-11.1%
O=S(=O)(Cc1ccccc1)c1nc2ccccc2n1Cc1ccccc1F	-0.0735%
Cn1cc(S(=O)(=O)N2CCCC2)cc1C(=O)NCCCN1CCN(C2CCCCC2)CC1	-0.361%
O=C1c2ccccc2C(=O)N1CNCc1cc(O)nc(O)n1	-6.25%
Cc1ccc(-c2nc(CS(=O)CC(=O)NCCC(C)C)c(C)o2)cc1 (stereo not shown)	-6.64%
Cc1ccc(C(=O)c2sc3nc4c(cc3c2N)CCC4)c(C)c1	2.7%
COCCNC(=O)c1cc(-c2ccco2)on1	-1.29%
Cc1ccc2cc3cc(C(=O)NCc4ccc5c(c4)OCO5)sc3nc2c1	-2.99%
CCOc1ccc2nc(Nc3nc(O)c4c(n3)CCC4)nc(C)c2c1	3.09%
Cc1ccc(CNC(=O)CSc2nc3ccccc3c3nc(C)nn23)cc1	1.74%
COc1ccc(NC(=O)c2cccc(S(=O)(=O)NCc3ccccc3)c2)cc1	1.64%
c1cncc(-c2nc3c4c5c(sc4ncn3n2)CCCCC5)c1	6.52%
CN(Cc1ccccc1)C(=O)Cn1nc(-c2ccc(Cl)cc2)ccc1=O	1.62%
CCc1cccc(NC(=O)c2ccc(OC)cc2)c1	9.41%

SMILES	% Inhibition @ 10 uM
CCOCCCNC(=O)CCn1nc(-c2ccc(Cl)cc2)ccc1=O	-1.79%
C=Cc1ccc(Cn2c(C(=O)O)c(CNCc3ccco3)c3ccc(C)cc32)cc1	2.96%
O=C(NCCC1=CCCCC1)C1CCN(S(=O)(=O)c2cccc3nsnc23)CC1	-3.35%
COc1ccccc1C1C2=C(O)CCCC2=NC(C)=C1C(=O)Nc1cccc(C)n1 (stereo not shown)	-10.4%
COc1ccc(NC(=O)C2=C(C)NC(=O)NC2c2ccc(OC)cc2)cc1 (stereo not shown)	9.5%
COc1cc(O)c2c(c1N)C(=O)c1ccccc1C2=O	-4.31%
Cc1csc(NC(=O)C2CCCN(S(=O)(=O)c3ccc(Br)s3)C2)n1 (stereo not shown)	-3.21%
O=C(CC1CC2CCC1C2)N1CCN(S(=O)(=O)c2ccc(F)cc2)CC1 (stereo not shown)	1.88%
COC(=O)Nc1nc(-c2ccc3ccccc3c2)cs1	-3.72%
COc1ccc(-c2c(C(=O)O)c3cc(OC)c(OC)cc3c(=O)n2C)cc1O	3.54%
Cc1ccc2oc(=O)c3cnn(CC(=O)NC4CCCc5ccccc54)c3c2c1 (stereo not shown)	3.2%
Cc1ccc(C(=O)CSc2n[nH]c(-c3ccco3)n2)cc1C	-3.4%
CCOCCCNC(=O)CCc1ccc(-n2cnc3cccnc32)cc1	-5.92%
COCCn1c2c(c(=O)[nH]c1=O)C(c1ccc(C(C)C)cc1)C1=C(O)c3ccccc3C1=N2 (stereo not shown)	0.778%
O=C1N/C(=C/c2ccc(Br)s2)C(=O)N1Cc1ccc(Cl)cc1	1.84%
CN(C)c1nc(NC(C)(C)C)nc(Oc2ccc(O)nn2)n1	0.778%
Cc1ccc(CNCc2c(C(=O)O)c(C)n(Cc3ccccc3C)c2C)o1	-0.23%
O=C(c1csc2ccccc12)N1CCN(c2ccccn2)CC1	-4.65%
COCCN(CCOC)c1ncnc2c1c(-c1ccccc1)cn2-c1cccc(C)c1	1.58%
CC(C)CN(CC(C)C)S(=O)(=O)N1CCC(C(=O)NC(C)C)CC1	3.79%
Cc1nnc2c3nnc(C)n3c3cc(Cl)ccc3n12	3%
FC(F)c1cc(-c2ccccc2)[nH]n1	-3.63%
O=C1OC(c2ccccc2F)=N/C1=C\c1cc(Br)cs1	0.607%
Cc1cccc2c1cnn2C(=O)CCC(=O)N1CCC(C)CC1	0.0198%
O=C(O)CSc1c2c(nc3cc(C(=O)NCc4ccc(F)cc4)ccc13)CCCC2	5.21%

From article PMC6919601, “Identification of Plasmodium dipeptidyl aminopeptidase allosteric inhibitors by high throughput screening” (PLoS ONE, 2019)
